In all, about 360,000 compounds went through this assay and about 17,000 (4.7%) were called active. The shares of active, inactive and inconclusive entries below differ from those in the screen. No stated cut-off is given here; in the data, active means activity change below about -50%; inconclusive means mostly about -30% to -49%; inactive means weaker than that.
test: qHTS for Inhibitors of Inflammasome Signaling: IL-1-beta AlphaLISA Primary Screen; details: THP-1 LPS/ATP IL-1B secretion, 16 h; at 57.5 µM, active compounds read low
Method in brief: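 THP-1 cells pretreated 1 hr with compounds (up to 57.5 uM final), then stimulated with LPS (250 ng/mL final) plus ATP (1.25 mM final); secreted IL-1B measured by AlphaLISA after 16 hr, decreased signal indicating inhibition.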
On the % scale 0 is the no-effect control and ±100 the full control effect.

Row | SMILES | activity change
1 | CCc1c(C)nc(SCC(=O)N2CCN(c3ccccc3)CC2)[nH]c1=O | inactive: 37.2%
2 | COc1ccccc1CC(O)CC1c2c(cc3c(c2OC)OCO3)CCN1C (configuration not stated) | inconclusive: -46.4%
3 | CN(Cc1ccc(OC(F)F)cc1)C(=O)c1cccc(S(=O)(=O)N2CCN(c3ccccc3)CC2)c1 | active: -62.4%
4 | CCCCCCOC(=O)c1ccc(OC(=O)c2cccnc2)cc1 | inconclusive: -37.9%
5 | O=[N+]([O-])c1c(NCCCO)cc(Sc2nc3ccccc3s2)c2nonc12 | inconclusive: -31.2%
6 | Cn1c(CNc2cccc(C(F)(F)F)c2)n[nH]c1=S | inactive: 11.6%
7 | COc1ccc(N=C2SC(CC(=O)Nc3ccccc3)C(=O)N2CC2CCCO2)cc1 (configuration not stated) | inconclusive: -34.5%
8 | CC(C)NC(=O)N(C)C[C@H]1OCCCC[C@@H](C)Oc2ccc(N(C)C)cc2C(=O)N([C@H](C)CO)C[C@@H]1C | inactive: 0%
9 | CC(=O)c1cccc(S(=O)(=O)N(Cc2cc3cc4c(cc3[nH]c2=O)OCCO4)CC2CCCO2)c1 (configuration not stated) | inactive: -22.5%
10 | CCOC(=O)c1sc(NC(=O)/C=C/c2cnn(CC)c2C)c(C(=O)OCC)c1C | inconclusive: -44.4%
11 | COC(=O)C1=C(C)N(Cc2ccccc2)C(=S)N[C@H]1c1cccc(C(F)(F)F)c1 | inconclusive: -40.6%
12 | O=[N+]([O-])/C(C(=C(Cl)Cl)N1CCN(Cc2ccccc2)CC1)=C1\NCCN1Cc1ccc(Cl)nc1 | inconclusive: -42.2%
13 | COc1c2ccoc2cc2oc(C)cc(=O)c12 | inactive: -11.9%
14 | COc1ccccc1NC(=O)Cn1c(=O)n(C)c(=O)c2sc3c(c21)COC(C)(C)C3 | inactive: 1.39%
15 | NC(CCc1ccccc1)c1csc(Nc2ccc(C(=O)c3ccccc3)cc2)n1 (configuration not stated) | inconclusive: -35.7%
16 | O=C(O)C[C@H]1c2cc(C(F)(F)F)ccc2S(=O)(=O)N1Cc1ccccc1 | inactive: -3.15%
17 | Cc1nc(N2CCN(Cc3nc4ccccc4[nH]3)CC2)c2oc3ccccc3c2n1 | inconclusive: -30.2%
18 | Cn1c(=O)c2ncn(CC(=O)Nc3nc(-c4ccc(Cl)cc4)cs3)c2n(C)c1=O | inactive: 31.1%
19 | CCc1c(-c2ccccc2)nc2sc3c(c2c1N)CCCC3 | active: -83.5%
20 | CC(Sc1nnc(Cc2cccs2)n1C1CC1)C(=O)NC1CCS(=O)(=O)C1 (configuration not stated) | inactive: -2.5%
21 | Cc1noc2ncnc(N3CCCC3)c12 | inactive: 0%
22 | C=CCNC(=S)N/N=C/c1ccc(C)c([N+](=O)[O-])c1 | inconclusive: -48.9%

Row | SMILES | activity change
23 | CCOC(=O)c1sc2ncnc(N3CCN(C(=O)OCC)CC3)c2c1C | inconclusive: -37.6%
24 | Cc1ccc(Cn2ncc3c(N4CCN(c5ccccc5C)CC4)ncnc32)cc1 | inconclusive: -36.6%
25 | O=C(N/N=C/C(Br)=C/c1ccccc1)c1cnccn1 | active: -98.9%
26 | CCCS(=O)(=O)NC(=O)C1(C)CCN(C(=O)c2cc(C(C)(C)C)nn2C)C1 (configuration not stated) | active: -53.4%
27 | CC(C)CCN1CC(=O)N2Cc3[nH]c4ccccc4c3C[C@H]2C1=O | inconclusive: -37.2%
28 | COc1ccc(C)cc1S(=O)(=O)n1cnc(C)c1 | inactive: 14.2%
29 | COc1ccc2nc(NCCCNC(=O)c3cc(OC)c(OC)c(OC)c3)c(C#N)cc2c1 | inactive: 29.2%
30 | CSc1cccc(NC(=O)c2sc3nc4n(c(=O)c3c2C)CCC4)c1 | inconclusive: -48.4%
31 | NCC(=O)CCC(=O)O | inactive: 8.35%
32 | COc1ccc(N(C)S(=O)(=O)c2cccc(C(=O)NC3CCC(C)CC3)c2)cc1 (configuration not stated) | inconclusive: -43.4%
33 | Cc1ccc(S(=O)(=O)/C=C2\NC(=O)CS2)cc1 | inactive: 14.1%
34 | Cc1ccc(C(=O)COC(=O)c2ccc3c(c2)C(=O)N(c2cccc4ncccc24)C3=O)cc1 | inactive: 13.7%
35 | COc1cc2ccc(C(C)=O)c(O)c2cc1OC | inactive: -10.2%
36 | Cc1cc(C)c(S(=O)(=O)Nc2ccccc2C(=O)N2CCOCC2)c(C)c1 | inactive: -7.81%
37 | CCC(=O)N1CCN(c2ccc(NC(=O)COc3ccccc3Cl)cc2)CC1 | active: -55.3%
38 | CCNC(=S)Nc1ccc(Cl)c([N+](=O)[O-])c1 | active: -88.9%
39 | O=C(CN1CCSc2ccccc21)NCCCc1ccccc1 | inconclusive: -32.3%
40 | Cc1nn(CC(O)CN2c3ccccc3Sc3ccccc32)c(C)c1Br (configuration not stated) | inactive: -11.2%
41 | COc1ccc(C(=O)CSC#N)cc1OC | inconclusive: -46.4%
42 | CC1CCN(C(=O)CSc2nnc(CSc3ncccn3)n2C)CC1 | inactive: -12.2%
43 | O=C(CC1C[C@H](C(=O)N2CCOCC2)[C@@]2(CCC3CCCC3)c3[nH]c4ccccc4c3CCN2C1=O)NCc1ccco1 (some centres not stated) | inconclusive: -39.1%
44 | C=C1CCC[C@]2(C)C[C@H]3OC(=O)C(CNC(CC)CO)[C@H]3CC12 (some centres not stated) | active: -97.7%

Row | SMILES | activity change
45 | O=C(Nc1nc2ccccc2[nH]1)C1CCCC1 | inconclusive: -49.6%
46 | CN1CCN(/N=C/c2ccc(-c3ccccc3)cc2)CC1 | active: -55.4%
47 | COc1ccc(C(=O)N=C2SC3CS(=O)(=O)CC3N2Cc2ccccc2)cc1OC (configuration not stated) | inconclusive: -33%
48 | O=C(CCCN1CCC(O)(c2ccc(Cl)cc2)CC1)c1ccc(F)cc1 | active: -68%
49 | CC(C)(C)CC(C)(C)NCC(=O)Nc1c2c(nc3ccccc13)CCC2 | inconclusive: -31.4%
50 | COc1ccc(CCNC(=O)c2cc(-c3ccc(C)c(C)c3O)n[nH]2)cc1OC | inconclusive: -40.9%
51 | O=C(O)/C=C/C(=O)Nc1ccccc1SC(F)(F)C(F)(F)C(F)(F)F | active: -104%
52 | O=C(NCc1cn(-c2ccccc2)nc1-c1ccccc1)c1cccc([N+](=O)[O-])c1 | inconclusive: -41.9%
53 | CC1CN(C(=O)CSc2nc(N)cc(N)n2)CC(C)O1 (configuration not stated) | inactive: 13.7%
54 | Cc1nn(C)c(NC(=O)c2ccccc2Cl)c1Br | inconclusive: -35.5%
55 | C=CCOC(=O)C1=C(C)NC(SC)=C(C#N)C1c1ccc(OCC)cc1 (configuration not stated) | inconclusive: -36.9%
56 | O=C(Cc1ccc(F)cc1)N1CCN=C1SCc1ccc([N+](=O)[O-])cc1 | active: -64.4%
57 | O=C(Oc1ccc(N(Cc2cccs2)C2=NS(=O)(=O)c3ccccc32)cc1)c1ccccc1 | inactive: 6.63%
58 | CCSc1nnc(COc2ccccc2)n1CC | inconclusive: -30.3%
59 | CCOc1ccc2nc(NC(=O)c3cc([N+](=O)[O-])ccc3N3CCOCC3)sc2c1 | inconclusive: -41.9%
60 | Cc1ccc(S(=O)(=O)N2CCCCC2CCNC(=O)C(=O)NCC2CCCO2)cc1 (configuration not stated) | inconclusive: -33.1%
61 | COc1cccc(-c2ccc(CN3C(C(C)C)C(=O)N(Cc4cn(CCC5OCCO5)nn4)CCS3(=O)=O)cc2)c1OC (configuration not stated) | inconclusive: -30.1%
62 | O=[N+]([O-])c1c(NCCCO)cc(Sc2ccc(Cl)cc2)c2nonc12 | active: -106%
63 | COc1ccc(CNC(=O)COC(=O)c2c(NC(C)=O)sc(C)c2C)cc1OC | inconclusive: -42.4%
64 | CCOC(=O)c1sc2nc(CC(=O)OC)nc(NCc3ccc(Cl)cc3)c2c1C | inconclusive: -38.1%
65 | CC(=O)Nc1ccc(NC(=O)CSc2nccn2Cc2ccc(Cl)cc2)cc1 | inconclusive: -30.1%
66 | CCCNC(=O)c1nnsc1S(=O)(=O)c1ccc(Cl)cc1 | active: -106%

Row | SMILES | activity change
67 | COc1ccc(CCNC(=O)COC(=O)CNS(=O)(=O)c2ccc(SC)c([N+](=O)[O-])c2)cc1 | inactive: 10.4%
68 | Cn1c(SCc2cccc([N+](=O)[O-])c2)nc2c(c1=O)SCC2 | inconclusive: -47.7%
69 | O=C(c1ccco1)N1CCc2[nH]nc(-c3ccc(Cl)cc3)c2C1 | active: -72%
70 | C/C(N)=C(/C#N)C(=O)COC(=O)c1cccc(O)c1 | active: -54.1%
71 | CNC(=S)N1N=C(c2ccc(C)cc2)CC1c1ccc(OC)cc1 (configuration not stated) | inconclusive: -37.8%
72 | C[C@H]1CN([C@@H](C)CO)C(=O)c2cccc(NC(=O)c3nc4ccccc4s3)c2O[C@H]1CN(C)C(=O)Nc1ccc(F)cc1 | inconclusive: -45.3%
73 | CCC(CC)NC(=O)CO/N=C/c1ccccc1OC(F)F | inactive: -11.9%
74 | CC(=O)N1N=C(c2ccccc2)CC1c1cn(C)c2ccccc12 (configuration not stated) | inconclusive: -38.4%
75 | Cn1c(N2CCOCC2)nc(-c2ccccc2)c1-c1ccccc1 | inconclusive: -41.5%
76 | CC(C)Cn1cnc2c(SCc3ccc(Cl)cc3)nc(N)nc21 | inconclusive: -43.5%
77 | COc1ccc2nc(NC(=O)Cc3cccs3)sc2c1 | inconclusive: -45.3%
78 | Cc1cc(C(C)(C)C)oc1C(=O)N(CC(=O)NC1CCCC1)Cc1ccccc1Cl | inconclusive: -49.6%
79 | Cc1c(C(=O)NCc2ccccc2C(F)(F)F)sc(=O)n1Cc1ccc2c(c1)OCO2 | inconclusive: -33.4%
80 | CN(C)c1ccc(-c2cc(NC=O)c3ncc(-c4ccc(F)c(Cl)c4)n3c2)cc1 | inconclusive: -41.7%
81 | Nc1cc2c(cc1C(=O)c1ccc(Cl)cc1)OCCO2 | inactive: -2.17%
82 | C[N+](C)(C)CCCCCC(=O)/C=N/O | inactive: 15.9%
83 | COc1ccccc1N1CCN(C(=O)c2cc3cc(F)ccc3[nH]2)CC1 | inconclusive: -47.4%
84 | COc1ccc(NC(=O)NC23CC4(C)CC(C)(CC(C)(C4)C2)C3)cc1 | inconclusive: -36.9%
85 | Cc1ccnc(Nc2nc(-c3ccc(F)cc3)cs2)c1 | active: -92.7%
86 | Cc1cc(C)n(CC(=O)c2cccc([N+](=O)[O-])c2)n1 | inconclusive: -35.6%
87 | Nc1nc(SCc2ccccc2)sc1C(=O)N1CCCCC1 | inconclusive: -33.5%
